Measured values from the supplement of paper PMC4166925.
± gives the standard deviation of the averaged measurements. Whole data set: some 33,000 sequences, median “E-score (dimensionless, -0.5 to 0.5)” near -0.046, cut for the highest 2% near 0.36. This is one part of the list.

The sequences below were run on T1, SpTbr T-box DNA-binding domain (GST fusion) (assay: PBM E-score of 8-mer (E-score (dimensionless, -0.5 to 0.5)); Tbr is Tbrain of the sea star Patiria miniata (Pm) or the sea urchin Strongylocentrotus purpuratus (Sp); higher = stronger binding preference; most listed sequences are background and not binding sites). Details: the construct has about 5 more residues each side.
T1 sequence: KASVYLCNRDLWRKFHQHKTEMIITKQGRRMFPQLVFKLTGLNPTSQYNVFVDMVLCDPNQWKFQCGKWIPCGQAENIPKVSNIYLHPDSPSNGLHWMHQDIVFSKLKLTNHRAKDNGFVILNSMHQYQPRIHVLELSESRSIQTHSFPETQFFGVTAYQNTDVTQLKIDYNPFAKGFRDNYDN
How it was run: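 Expression of GST-fused Tbr T-box DNA-binding domains, each holding the full T-box plus roughly five flanking residues, was carried out in BL21 E. coli at 20 °C, with purification by glutathione affinity chromatography. Universal Agilent arrays made double-stranded by primer extension were incubated with the protein at 200 nM in PBS (pH 7.5), then scanned and quantified. All ungapped 8-mers were scored from probe intensities, and each received an enrichment E-score from the Universal PBM Analysis Suite, averaged over duplicate arrays.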

Sequence	PBM E-score of 8-mer
CCTAGAAA	-0.133 ± 0.0055
CTCGATAC	-0.0938 ± 0.055
AAGTGTAT	0.0229 ± 0.032
CCTATCAA	-0.102 ± 0.079
CAGCGGCG	0.0538 ± 0.12
TACTTAAA	-0.211 ± 0.062
CGCAGGAA	-0.0834 ± 0.04
AACGCTGA	0.0629 ± 0.00085
TGTAAAAA	-0.00039 ± 0.062
CAGGATGA	-0.252 ± 0.01
AACTAGCT	0.0492 ± 0.011
ATGCGTTC	-0.223 ± 0.02
ATCGGAGA	-0.127 ± 0.025
GAACGGCC	-0.0349 ± 0.059
AGTGCTAG	0.265 ± 0.049
GTGAACAA	0.255 ± 0.026
AATCTGTC	0.205 ± 0.027
ACGATACA	0.059 ± 0.027
ACTACCCC	-0.293 ± 0.066
AAACAGGG	-0.109 ± 0.011
ACCCCGAA	0.0131 ± 0.062
AAGTCCTA	-0.213 ± 0.025
ACGCTTGC	0.222 ± 0.011
AAAGACGC	0.0124 ± 0.035
TATCTCCA	-0.2344 ± 0.0019

Sequence	PBM E-score of 8-mer
CTATACAC	0.0341 ± 0.019
CTACTTGC	0.117 ± 0.025
AGAGGACG	-0.0797 ± 0.036
CCTGCCAA	0.128 ± 0.013
AGAAGGCG	0.303 ± 0.019
CTGGATCC	-0.0828 ± 0.0051
GGGTGGGA	0.271 ± 0.029
AATACGGT	-0.0647 ± 0.0054
GAACTCTC	-0.086 ± 0.033
GATCCTTA	-0.249 ± 0.0052
ACACGCAT	0.219 ± 0.0094
CACCAAAC	0.292 ± 0.036
ATTACTTG	0.0509 ± 0.038
ATGCGCTG	-0.00652 ± 0.078
CCCGTGGA	-0.0448 ± 0.005
CCCCCCAA	-0.135 ± 0.0046
GAGGAACA	0.0561 ± 0.021
CCGCCGTA	-0.262 ± 0.041
CTGTGACC	0.142 ± 0.026
GCGCCTAC	0.157 ± 0.01
AACCAGGA	-0.205 ± 0.014
TAGCAAAA	0.00702 ± 0.059
GTGACCAC	0.277 ± 0.039
CCTAGACC	-0.178 ± 0.029
CTACCATA	-0.0906 ± 0.045

Sequence	PBM E-score of 8-mer
AAAAGCTC	-0.0622 ± 0.065
CGTGTAAA	0.296 ± 0.027
CCTTGGTC	-0.155 ± 0.13
CTATAGAG	-0.282 ± 0.072
CGCCACGC	0.113 ± 0.022
TCCCTGAA	-0.204 ± 0.075
CTAGTCTA	-0.179 ± 0.058
AACTCTAT	-0.0786 ± 0.034
AAATTCGT	-0.0546 ± 0.095
CCCGGTAA	-0.228 ± 0.0044
ACTACTAA	-0.1604 ± 0.00025
AATCTTTA	-0.0541 ± 0.083
ACCAGTTG	-0.00842 ± 0.05
ATGTAACC	-0.22 ± 0.043
CAGACAAC	-0.0376 ± 0.013
ACACGGAG	0.126 ± 0.005
CTCTTTCC	-0.0647 ± 0.075
CCTACTGA	-0.116 ± 0.007
ACTCGGTG	0.133 ± 0.025
ATAGCCTC	-0.234 ± 0.0044
AAACTTGG	-0.128 ± 0.057
TGTCAACA	0.4051 ± 0.0019
GCCGGATA	-0.321 ± 0.0046
GGGTTTCA	-0.1 ± 0.084
GGTCCCGA	-0.26 ± 0.0084

Sequence	PBM E-score of 8-mer
CGCGCTAC	0.218 ± 0.024
CAGCTTTA	0.114 ± 0.029
AGCGCCTA	0.181 ± 0.0058
CGGGTGTC	0.3608 ± 0.0021
ACTAGCCA	-0.149 ± 0.072
AAGACTCC	-0.311 ± 0.011
TAAGCCCA	-0.145 ± 0.035
AACGTCCC	0.104 ± 0.0077
CGATCGCC	0.128 ± 0.1
CCAGCTAC	-0.0977 ± 0.027
GAAGTACA	-0.0366 ± 0.11
AAAGGAGC	-0.0232 ± 0.041
CACGCTAC	0.179 ± 0.092
GGGTCGGA	-0.0487 ± 0.015
ACTGGTGG	0.0642 ± 0.05
GAACCTCA	-0.0264 ± 0.06
GTGGACAA	0.00611 ± 0.011
CGAGTGTC	0.305 ± 0.011
AAGGGTCC	-0.221 ± 0.023
CTATTACA	0.206 ± 0.015
GGAGTAAA	-0.148 ± 0.013
ATCGCGCC	0.4021 ± 0.0011
AACAGCTT	0.221 ± 0.043
GGTTAGGA	-0.202 ± 0.017
AACCATAT	-0.143 ± 0.016

Sequence	PBM E-score of 8-mer
CGGAGCGA	0.0335 ± 0.012
CAAGTGGC	0.246 ± 0.03
GCCAAGAA	-0.0758 ± 0.011
TCTCAAAA	-0.176 ± 0.025
ATAAGCTG	0.00517 ± 0.008
CACCTGAC	0.374 ± 0.0049
ATTCGGGG	-0.21 ± 0.023
CGGCTCCC	-0.04913 ± 0.00011
CGCGCTTC	0.228 ± 0.043
ACTCAGAG	-0.0809 ± 0.032
AGACTCAT	-0.116 ± 0.033
TAGACATA	-0.281 ± 0.0072
CGCACAAA	-0.00615 ± 0.05
ACGAACCT	-0.113 ± 0.08
ATTCGGAA	-0.271 ± 0.015
CTAGTATA	-0.00825 ± 0.1
AGGGTACT	-0.0543 ± 0.024
ATCCAGCG	-0.0457 ± 0.042
GCACCGTA	0.0905 ± 0.09
AATGATGT	0.00537 ± 0.014
GAAGCCTC	-0.0324 ± 0.11
TGAGTCCA	-0.14 ± 0.039
AGTTCCGG	-0.2769 ± 0.00061
AACTACAA	0.107 ± 0.086
GCCTTACC	-0.157 ± 0.023

Sequence	PBM E-score of 8-mer
GGTGCGGA	0.404 ± 0.023
GTTCGCTA	0.15 ± 0.0052
ATTCATGC	-0.0337 ± 0.021
ACCCTGAA	0.147 ± 0.021
AGCAACGA	-0.0157 ± 0.0052
GATACGCA	-0.0423 ± 0.00059
GGGGCACA	-0.0759 ± 0.03
GGCAAGAA	-0.182 ± 0.068
GAGCAGGA	-0.149 ± 0.092
TAAGAACA	-0.0304 ± 0.082
ACACAGTG	0.285 ± 0.015
GTTCTTTA	-0.164 ± 0.051
GATCAACC	-0.12 ± 0.0035
ATTGAGGA	-0.174 ± 0.086
AAGGGTGG	0.146 ± 0.028
AGCCACCA	-0.0464 ± 0.031
ATATATAG	0.000495 ± 0.06
TCTAATAA	-0.0597 ± 0.026
ACGTATGC	0.0191 ± 0.0035
AATGATGA	-0.139 ± 0.056
CTGGGATA	-0.188 ± 0.098
AGAATTTA	-0.243 ± 0.096
TCGTTTAA	-0.111 ± 0.006
TCGCGACA	0.322 ± 0.0016
CCAGGGGA	-0.278 ± 0.008

Sequence	PBM E-score of 8-mer
CTTACCGA	-0.181 ± 0.022
AAGCATGA	0.0805 ± 0.033
TCGCAAAA	0.132 ± 0.0091
GGCGATAC	0.0327 ± 0.059
TCGCTCAA	0.0108 ± 0.038
CTAAACCA	-0.0751 ± 0.046
ATATCATC	0.051 ± 0.031
ACGGATTA	-0.191 ± 0.027
AATGTGAA	0.179 ± 0.065
ACTGCGCT	0.0647 ± 0.021
TCGTACCA	-0.0779 ± 0.12
CCAGTCTC	-0.199 ± 0.0046
CCACCACG	-1e-05 ± 0.011
GCCAAGCC	-0.153 ± 0.012
AACCTCAC	0.182 ± 0.034
CCTAGAAG	-0.116 ± 0.088
CTGAATTC	-0.284 ± 0.014
ACTCTGGA	-0.299 ± 0.026
AGGCTTCA	-0.105 ± 0.024
ATGTTCCA	-0.15 ± 0.0063
ACTGGAGG	0.0415 ± 0.012
GCTACCAA	0.047 ± 0.019
GCCGCGCC	0.13 ± 0.042
AGATAGTG	0.203 ± 0.021
GCGTTGCA	0.191 ± 0.011

Sequence	PBM E-score of 8-mer
AAAGCCTG	-0.0703 ± 0.037
GCCTCGAA	-0.251 ± 0.017
TAGGCCTA	-0.124 ± 0.14
ATAGGGAC	-0.0192 ± 0.038
TCCTGAAA	-0.301 ± 0.025
AGGTTATC	0.0555 ± 0.019
CCGTCCAC	-0.0917 ± 0.0043
AGACTGTA	-0.109 ± 0.032
ATCACGTC	0.086 ± 0.0023
AATGAAAA	-0.0766 ± 0.12
AATGGTGG	-0.0541 ± 0.078
ACTGTCGG	0.189 ± 0.051
CTACGATA	0.151 ± 0.048
GTGGCGCA	0.107 ± 0.091
GCGTCGGA	-0.036 ± 0.031
ATAAAAGA	-0.274 ± 0.02
GCTCTAAA	-0.1 ± 0.025
CCTATTCC	-0.0953 ± 0.027
AGATCGGG	-0.08 ± 0.0082
ACAAAGCC	-0.0854 ± 0.036
AGGTTCGA	-0.135 ± 0.027
AATGATTG	0.021 ± 0.017
TAAACACA	0.231 ± 0.044
ATGTCAAC	0.267 ± 0.024
AGGATCCG	-0.367 ± 0.011

Sequence	PBM E-score of 8-mer
GGGTGACA	0.4258 ± 0.0018
AGTCGGAA	-0.166 ± 0.13
TCCAGCAA	-0.1526 ± 0.0014
CGGTTTAG	-0.0144 ± 0.033
AGCAGAAT	0.0268 ± 0.0024
ATGAATAA	-0.2 ± 0.032
GACGGACC	-0.14 ± 0.031
AGGGAACT	-0.00114 ± 0.059
GCTATGGA	-0.256 ± 0.036
CGCGCATC	0.103 ± 0.018
ATCTGGGA	-0.075 ± 0.11
CAAGGGCG	0.0308 ± 0.03
CTCCTTCC	-0.114 ± 0.036
ACGCAGAT	-0.133 ± 0.0062
CAAGATTC	-0.217 ± 0.0083
GAATCAGA	-0.0679 ± 0.055
AGATAGAC	-0.335 ± 0.056
ATATATGC	-0.293 ± 0.023
ACGCTTGG	0.0203 ± 0.037
